We go through eleven molecules from the antibiotic and cytotoxicity screens of Wong et al. (2023).

Assay [1] concerns HSkMC (human skeletal muscle cells). The assay can be described thus: cytotoxicity call (relative viability < 0.9). To be noted: 10 µM.
The test system of assay [2] is HepG2. The assay can be described thus: cytotoxicity call (relative viability < 0.9). To be noted: 10 µM.
Assay [3] deals with S. aureus RN4220. The assay can be described thus: growth inhibition call (relative growth <= 0.2). To be noted: 50 µM.

The list shows a part of the results.

On to `Cc1n[nH]c(=S)[nH]c1=O`, for which the cytotoxicity call in assay [1] and in assay [2] was “inactive” in each case. Besides, in assay [3], the growth inhibition call is “inactive”.

Turning to `Cc1noc(C)c1S(=O)(=O)N(C)C[C@@H]1OCCCC[C@@H](C)Oc2ccc(NC(=O)CCCCCC(=O)Nc3ccccc3N)cc2C(=O)N([C@H](C)CO)C[C@@H]1C`, the cytotoxicity call in assay [1] and in assay [2] was “inactive” throughout. Besides, the growth inhibition call in assay [3] is “inactive”.

`CCc1nc2ccc(C(=O)NCCOc3ccc(OC)cc3)cn2c1N(CC)Cc1cccc(Br)c1`: the cytotoxicity call in assay [1] and in assay [2] was “inactive” throughout. Moreover, the growth inhibition call in assay [3] was “inactive”.

Turning to `Cc1ccc(S(=O)(=O)N(C)C[C@H]2OCCCC[C@@H](C)Oc3ccc(NS(=O)(=O)c4ccc(F)cc4)cc3C(=O)N([C@H](C)CO)C[C@@H]2C)cc1`, the cytotoxicity call in assay [1] and in assay [2] was “inactive” throughout. For the same molecule, in assay [3], the growth inhibition call is “inactive”.

Consider `COc1ccc([C@@H]2CC(=O)c3c(O)cc(O[C@@H]4O[C@H](CO[C@@H]5O[C@@H](C)[C@H](O)[C@@H](O)[C@H]5O)[C@@H](O)[C@H](O)[C@H]4O)cc3O2)cc1O`, for which the cytotoxicity call in assay [1] and in assay [2] was “inactive” throughout. Also, the growth inhibition call in assay [3] is “inactive”.

As to `O=S(=O)(NCC[C@@H]1CC[C@@H](NS(=O)(=O)c2ccccc2Cl)[C@@H](CO)O1)c1ccc(F)cc1`, the cytotoxicity call in assay [1] and in assay [2] was “inactive” throughout. For the same molecule, the growth inhibition call in assay [3] was “inactive”.

`Nc1ccc(S(N)(=O)=O)cc1`: the cytotoxicity call in assay [1] and in assay [2] was “inactive” each time. Moreover, the growth inhibition call in assay [3] is “inactive”.

Turning to `Cc1ccc(S(=O)(=O)N(C)C[C@H]2OCCCC[C@@H](C)Oc3ccc(NC(=O)Nc4c(C)noc4C)cc3C(=O)N([C@H](C)CO)C[C@H]2C)cc1`, the cytotoxicity call in assay [1] and in assay [2] was “inactive” each time. Moreover, in assay [3], the growth inhibition call was “inactive”.

On to `Oc1ccc(Cl)c2c1CCC2`, for which the cytotoxicity call in assay [1] and in assay [2] was “inactive” throughout. In addition, in assay [3], the growth inhibition call was “inactive”.

Consider `O=c1nc[nH]c2n[nH]cc12`, for which the cytotoxicity call in assay [1] and in assay [2] was “inactive” each time. In addition, in assay [3], the growth inhibition call is “inactive”.

In the case of `O=C(N[C@@H](c1ccc(-c2ccccc2)cc1)c1cnccn1)C1CCN(CCOc2ccc(F)cc2)CC1`, the cytotoxicity call in assay [1] is “inactive”. Further, the cytotoxicity call in assay [2] was “active”. In addition, the growth inhibition call in assay [3] is “active”.
